Where “and” joins values, the source holds several entries; their conditions need not be identical. Equal entries are not always repeated. The inconclusive results got no clear call from the source; some entries with a clear call stand among them for comparison. For some assays here: Potencies beside an inconclusive call are fits to weak or partial responses and may not hold up. Calls of active or inactive are those of the source. Calls come from the whole dose curve; as a rule, active = well fitted curve in the direction sought with a large enough effect in the repeat runs; inconclusive = weak or mixed curves; inactive = no such curve, though single readings can be large; an effect the other way counts as inactive or inconclusive.
Assays:
[1] = Human pregnane X receptor (PXR) small molecule agonists, qHTS cell viability counter screen (AID 1346977); note: nearly all actives have a fitted effect of over 50% in size; note: potency is the fitted concentration of half-maximal effect
In short: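 Measures live-cell protease fluorescence (CellTiter-Fluor) in PXR-Luc HepG2 cells treated 24hr with compounds at 37C. Cells had 5hr to attach before pin transfer of DMSO solutions.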

[2] = molecular target: Nuclear receptor subfamily 1 group I member 2 (Homo sapiens) (UniProt O75469); test: CYP3A4 induction through human pregnane X receptor (PXR) by small molecules, qHTS assay (AID 1346984); note: potency is the fitted concentration of half-maximal effect; nearly all actives have a fitted effect of over 40% in size
In short: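 Cells (DPX-2; HepG2 with PXR element plus CYP3A4-promoter luciferase) settled 5hr, then were treated 24hr at 37C. A 3hr, 3uM-final Luciferin-IPA step preceded luminescence measurement with One-Glo.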

[3] = molecular target: Cytochrome P450 2D6 (Homo sapiens) (UniProt P10635); test: Cytochrome P450 Family 2 Subfamily D Member 6 (CYP2D6) small molecule antagonists: luciferase reporter qHTS assay (AID 1671196); note: nearly all actives have a fitted effect of over 50% in size; note: potency is the fitted concentration of half-maximal effect
Chain of UniProt P10635 (P10635 whole entry, looked up): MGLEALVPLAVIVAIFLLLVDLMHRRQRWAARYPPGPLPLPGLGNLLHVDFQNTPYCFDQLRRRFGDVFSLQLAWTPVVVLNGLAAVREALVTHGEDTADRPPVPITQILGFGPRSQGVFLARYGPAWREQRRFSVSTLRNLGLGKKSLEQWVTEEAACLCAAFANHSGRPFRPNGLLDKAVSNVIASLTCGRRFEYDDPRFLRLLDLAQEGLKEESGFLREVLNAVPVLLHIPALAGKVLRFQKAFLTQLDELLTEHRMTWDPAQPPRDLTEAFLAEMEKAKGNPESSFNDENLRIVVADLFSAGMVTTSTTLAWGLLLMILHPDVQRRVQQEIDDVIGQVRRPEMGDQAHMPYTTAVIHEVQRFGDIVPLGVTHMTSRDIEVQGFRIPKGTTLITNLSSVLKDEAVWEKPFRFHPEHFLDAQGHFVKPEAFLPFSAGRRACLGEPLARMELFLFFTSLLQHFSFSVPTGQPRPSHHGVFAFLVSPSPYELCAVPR
In short: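 Room-temperature luminescent CYP2D6 activity assay: compound preincubated 10 min with enzyme–substrate mix, NADPH-initiated reaction 1 h, detection reagent 20 min before reading.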

[4] = molecular target: Cytochrome P450 2C19 (Homo sapiens) (UniProt P33261); test: Cytochrome P450 Family 2 Subfamily C Member 19 (CYP2C19) small molecule antagonists: luciferase reporter qHTS assay (AID 1671197); note: nearly all actives have a fitted effect of over 65% in size; note: potency is the fitted concentration of half-maximal effect
Chain of UniProt P33261 (P33261 whole entry, looked up): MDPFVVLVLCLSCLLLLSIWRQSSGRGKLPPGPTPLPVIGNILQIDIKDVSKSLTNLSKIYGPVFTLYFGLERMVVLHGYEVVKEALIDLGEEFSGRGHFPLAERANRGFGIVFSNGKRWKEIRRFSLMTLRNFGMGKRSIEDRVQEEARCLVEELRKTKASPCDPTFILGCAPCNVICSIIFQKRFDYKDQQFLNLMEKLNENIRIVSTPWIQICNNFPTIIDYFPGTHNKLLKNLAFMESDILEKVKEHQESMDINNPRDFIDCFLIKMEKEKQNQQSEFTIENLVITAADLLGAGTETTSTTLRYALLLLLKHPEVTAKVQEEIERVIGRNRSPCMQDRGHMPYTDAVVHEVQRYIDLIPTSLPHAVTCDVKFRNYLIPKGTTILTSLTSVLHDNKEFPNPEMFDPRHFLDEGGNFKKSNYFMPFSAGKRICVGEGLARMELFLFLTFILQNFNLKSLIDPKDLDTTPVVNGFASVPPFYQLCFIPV
In short: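 First, compounds are pinned into enzyme-substrate mix and held 10 min at room temperature. Second, NADPH regeneration solution is added and plates incubate 1 h at 37C. Third, detection reagent is added and luminescence read after 20 min.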

[5] = molecular target: Cytochrome P450 2C9 (Homo sapiens) (UniProt P11712); test: Cytochrome P450 Family 2 Subfamily C Member 9 (CYP2C9) small molecule antagonists: luciferase reporter qHTS assay (AID 1671198); note: potency is the fitted concentration of half-maximal effect; nearly all actives have a fitted effect of over 50% in size
Chain of UniProt P11712 (P11712 whole entry, looked up): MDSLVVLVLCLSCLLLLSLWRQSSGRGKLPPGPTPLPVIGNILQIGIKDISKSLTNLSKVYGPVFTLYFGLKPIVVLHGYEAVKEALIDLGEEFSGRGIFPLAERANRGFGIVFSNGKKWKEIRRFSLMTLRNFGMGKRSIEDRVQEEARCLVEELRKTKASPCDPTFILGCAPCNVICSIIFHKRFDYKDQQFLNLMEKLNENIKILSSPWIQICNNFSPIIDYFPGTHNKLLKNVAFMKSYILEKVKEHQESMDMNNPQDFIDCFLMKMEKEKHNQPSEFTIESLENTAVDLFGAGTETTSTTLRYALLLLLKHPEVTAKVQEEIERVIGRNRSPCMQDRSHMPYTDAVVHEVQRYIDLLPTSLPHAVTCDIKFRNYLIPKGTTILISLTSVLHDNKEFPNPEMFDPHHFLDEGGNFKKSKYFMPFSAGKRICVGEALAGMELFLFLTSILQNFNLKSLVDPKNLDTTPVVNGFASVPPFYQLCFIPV
In short: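 P450-Glo proluciferin substrate with CYP2C9 enzyme; 10 min RT preincubation, then NADPH regeneration 1 h at 37C; luciferin detection reagent 20 min RT, luminescence in relative luminescence units.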

[6] = molecular target: Nuclear receptor subfamily 1 group I member 2 (Homo sapiens) (UniProt O75469); test: Human pregnane X receptor (PXR) small molecule agonists, qHTS assay (AID 1346982); note: potency is the fitted concentration of half-maximal effect; nearly all actives have a fitted effect of over 35% in size
In short: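 Tox21 qHTS; PXR-Luc HepG2; compounds pinned from DMSO; 24 hr, 37 C; ONE-Glo luciferase detection, 30 min room temperature.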

[7] = molecular target: Cytochrome P450 1A2 (Homo sapiens) (UniProt P05177); test: Cytochrome P450 Family 1 Subfamily A Member 2 (CYP1A2) small molecule antagonists: luciferase reporter qHTS assay (AID 1671199); note: potency is the fitted concentration of half-maximal effect; nearly all actives have a fitted effect of over 50% in size
Chain of UniProt P05177 (P05177 whole entry, looked up): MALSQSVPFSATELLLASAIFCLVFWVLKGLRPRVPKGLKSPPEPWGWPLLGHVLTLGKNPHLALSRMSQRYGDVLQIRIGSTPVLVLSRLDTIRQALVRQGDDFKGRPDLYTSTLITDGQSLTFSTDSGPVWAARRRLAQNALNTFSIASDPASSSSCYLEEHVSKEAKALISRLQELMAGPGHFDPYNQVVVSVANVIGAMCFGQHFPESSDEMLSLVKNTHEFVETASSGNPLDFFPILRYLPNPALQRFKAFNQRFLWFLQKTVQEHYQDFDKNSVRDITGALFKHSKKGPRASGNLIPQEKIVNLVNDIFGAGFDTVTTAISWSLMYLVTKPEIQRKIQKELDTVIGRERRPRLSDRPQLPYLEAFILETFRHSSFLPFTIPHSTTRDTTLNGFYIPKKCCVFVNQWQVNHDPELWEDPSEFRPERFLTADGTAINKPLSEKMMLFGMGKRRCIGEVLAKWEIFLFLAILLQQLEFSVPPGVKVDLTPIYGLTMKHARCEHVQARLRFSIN
In short: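 Room-temperature CYP1A2 reaction with proluciferin substrate: compounds added from DMSO, 10 min preincubation, NADPH regeneration for 1 h. Luciferin detection reagent then added; luminescence recorded as RLU.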

[8] = molecular target: Nuclear receptor subfamily 1 group I member 2 (Rattus norvegicus) (UniProt Q9R1A7); test: Rat pregnane X receptor (rPXR) activation by small molecules, qHTS assay (AID 1346983); details: rPXR luciferase reporter cells, One-Glo luminescence, 24 h; max activation: stronger effect = higher value; note: % is set by controls: 0 for no effect and ±100 for the full control effect; nearly all actives have a fitted effect of over 20% in size
Chain of UniProt Q9R1A7 (Q9R1A7 whole entry, looked up): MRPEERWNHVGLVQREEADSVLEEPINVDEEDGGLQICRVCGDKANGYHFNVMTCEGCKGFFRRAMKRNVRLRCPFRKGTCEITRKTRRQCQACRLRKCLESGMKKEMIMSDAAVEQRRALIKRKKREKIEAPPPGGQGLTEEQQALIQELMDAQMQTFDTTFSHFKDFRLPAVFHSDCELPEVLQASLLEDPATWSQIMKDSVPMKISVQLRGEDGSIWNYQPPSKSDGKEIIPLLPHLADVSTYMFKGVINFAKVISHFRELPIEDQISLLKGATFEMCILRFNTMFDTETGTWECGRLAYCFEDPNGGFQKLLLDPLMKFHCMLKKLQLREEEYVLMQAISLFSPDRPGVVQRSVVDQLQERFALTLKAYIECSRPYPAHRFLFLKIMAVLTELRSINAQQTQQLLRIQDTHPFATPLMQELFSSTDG
In short: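 Cell-based rPXR activation assay: rPXR cells, 2,000 per well, rested 5hr at 37 C, then exposed to compounds in DMSO for 24 hr at 37 C. Luciferase activity read by One-Glo luminescence after 30 min at room temperature.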
Tags give direction and shape of the fitted curve.

## N[C@H](Cc1c[nH]c2ccccc12)C(=O)O
[1]
  Potency: inactive
[2]
  Potency: inconclusive: 12.6 µM [activator, single point]
[3]
  Potency: inconclusive: 21.9 µM [inhibitor, partial curve]
[4]
  Potency: inconclusive: 89.4 µM [inhibitor, single point] and inactive
[5]
  Potency: inconclusive: 38.9 µM [inhibitor]

## CCOC(=O)CCC(C)=O
[1]
  Potency: inactive
[4]
  Potency: inactive

## CCCCCCCCCC#N
[1]
  Potency: inconclusive: 76.6 µM [cytotoxic, partial curve, poor fit]
[6]
  Potency: inconclusive: 68.2 µM [activator, single point]
[7]
  Potency: inconclusive: 70.6 µM [inhibitor]

## COc1ccc(S(=O)(=O)Nc2nnc(CC(C)C)s2)cc1
[1]
  Potency: inactive
[8]
  max activation: inactive: -1.31% and inactive: -1.74%
[3]
  Potency: inactive
[4]
  Potency: inconclusive: 43.6 µM [inhibitor, single point]

From PubChem BioAssay (Tox21)
